Patent publication US12227500B2, “Substituted pyrrolo[2,3-b]pyridines for suppressing toxic endoplasmic reticulum stress” (THE TRUSTEES OF COLUMBIA UNIVERSITY IN THE CITY OF NEW YORK, priority 2018, dated 2025)
Like-named read-outs stand apart in the source and are kept apart here. Square brackets hold non-standard residues; d marks the D form. Peptide text beside a SMILES is read from it. Nle = CCCC[C@H](N)C(=O)O

Tested on: Hb9::GFP-hSOD1^G93A motor neurons
[1] = 7.5 μM CPA, best time point (24 or 48 hrs post CPA) and concentration tested

Compound | % rescue of CPA toxicity Cell death [1] [%] | % rescue of CPA toxicity Neurite growth [1] [%] | active concentrations for rescue of motor neurons (7.5 μM CPA, FIG. 19A) [µM] | % rescue of CPA toxicity Cell death [%] | % rescue of CPA toxicity Neurite growth [%]
Cc1[nH]c2ccc(O)cc2c1CCN [2-metyl 5-hydroxy tryptamin] | 0.7672 | 3.779 | – | – | –
O=C(O)CCC/C=C\C[C@@H]1[C@@H](/C=C/[C@H](O)C2Cc3ccccc3C2)[C@@H](F)C[C@@H]1O [AL8810] | 1.258 | −2.055 | – | – | –
c1cc(Nc2cc(C3CC3)[nH]n2)nc(Nc2ccc3nc[nH]c3c2)n1 [APY29] | 57.76 | 107 | – | – | –
CC(=O)OCOC(=O)CN(CC(=O)OCOC(C)=O)c1ccccc1OCCOc1ccccc1N(CC(=O)OCOC(C)=O)CC(=O)OCOC(C)=O [BAPTA-am] | −22.41 | −23.86 | – | – | –
COc1ccc(O)c(C(C)(C)C)c1 [Butylated hydroxyanisole] | 1.355 | −0.9415 | – | – | –
CCCC[C@@H](C=O)NC(=O)[C@H](CC(C)C)NC(=O)[C@H](CC(C)C)NC(C)=O [Calpain inh. l] (Ac-Leu-Leu-[Nle]-aldehyde) | 6.328 | 3.561 | – | – | –
Cc1cc(=O)oc2c(C=O)c(O)ccc12 [Compound 4u8C] | 9.304 | −0.004912 | – | – | –
CC[C@H]1[C@@H](O)[C@@H]2[C@H](CC[C@]3(C)[C@@H]([C@H](C)CCC(=O)O)CC[C@@H]23)[C@@]2(C)CC[C@@H](O)C[C@@H]12 [Compound 6-Et-CDCA] | 9.986 | 38.18 | – | – | –
N[C@@H](Cc1ccc(O)c(O)c1)C(=O)O [DOPA] | 2.064 | 38.56 | – | – | –
O=C1CN(/N=C/c2ccc(-c3ccc([N+](=O)[O-])cc3)o2)C(=O)N1 [Dantro, dantrolene] | −7.952 | −9.099 | – | – | –
CC1=NCC[C@@H](C(=O)O)N1 [Ectoine] | 5.031 | 4.253 | – | – | –
CCn1c2ccccc2c2cc(Nc3ccnc(NCCCN4CCOCC4)n3)ccc21 [Ehop-016] | −58.41 | −44.42 | – | – | –
CCOC(=O)c1ccc(NC2CCCCC2)c(N)c1 [Ferrostatin-1] | 2.794 | −2.344 | – | – | –
C[C@H](CCC(=O)NCC(=O)O)[C@H]1CC[C@H]2[C@@H]3[C@H](O)C[C@@H]4C[C@H](O)CC[C@]4(C)[C@H]3C[C@H](O)[C@]12C [GCA] | 23.53 | 35.88 | – | – | –
C[C@H](CCC(=O)NCC(=O)O)[C@H]1CC[C@H]2[C@@H]3[C@H](O)C[C@@H]4C[C@H](O)CC[C@]4(C)[C@H]3CC[C@]12C [GCDCA] | 2.569 | 4.419 | – | – | –
CN(C)CCCn1cc(C2=C(c3c[nH]c4ccccc34)C(=O)NC2=O)c2ccccc21 [GF109203X] | 27.85 | 30.94 | – | – | –
C[C@H](CCC(=O)NCC(=O)O)[C@H]1CC[C@H]2[C@@H]3[C@@H](O)C[C@@H]4C[C@H](O)CC[C@]4(C)[C@H]3CC[C@]12C [GUDCA] | 9.971 | 41.88 | – | – | –
COC(=O)CC[C@@H](C)[C@H]1CC[C@H]2[C@@H]3C[C@H](O)[C@@H]4C[C@H](O)CC[C@]4(C)[C@H]3CC[C@]12C [HDCA-Me ester] | 7.111 | 18.93 | – | – | –
C[C@H](CCC(=O)O)[C@H]1CC[C@H]2[C@@H]3C[C@H](O)[C@@H]4C[C@H](O)CC[C@]4(C)[C@H]3CC[C@]12C [HDCA] | 10.18 | 22.26 | – | – | –
CN([C@@H](Cc1ccc(OS(=O)(=O)c2cccc3cnccc23)cc1)C(=O)N1CCN(c2ccccc2)CC1)S(=O)(=O)c1cccc2cnccc12 [KN-62] | 3.13 | −4.058 | – | – | –
COc1ccc(S(=O)(=O)N(CCO)c2ccccc2CN(C)C/C=C/c2ccc(Cl)cc2)cc1 [KN-93] | −4.232 | −9.04 | – | – | –
O=C1Cc2c([nH]c3ccc(Br)cc23)-c2ccccc2N1 [Kenpaullone] | – | – | 5 to 10 | – | –
C[C@H](CCC(=O)[O-])[C@H]1CC[C@H]2[C@@H]3CC[C@@H]4C[C@H](OS(=O)(=O)[O-])CC[C@]4(C)[C@H]3CC[C@]12C.[Na+].[Na+] [LCA-3-sulfate disodium salt] | −2.074 | 6.127 | – | – | –
C[C@H](CCC(=O)O)[C@H]1CC[C@H]2[C@@H]3CC[C@@H]4C[C@H](O)CC[C@]4(C)[C@H]3CC[C@]12C [LCA] | 9.086 | 22.62 | – | – | –
O=S(=O)(c1cccc2c(I)cccc12)N1CCCNCC1 [ML-7] | −16.02 | −14.01 | – | – | –
NS(=O)(=O)c1cccc2c1c([N+](=O)[O-])cc1nc(O)c(O)nc12 [NBQX] | 1.545 | 5.666 | – | – | –

Compound | % rescue of CPA toxicity Cell death [1] [%] | % rescue of CPA toxicity Neurite growth [1] [%] | active concentrations for rescue of motor neurons (7.5 μM CPA, FIG. 19A) [µM] | % rescue of CPA toxicity Cell death [%] | % rescue of CPA toxicity Neurite growth [%]
CCOC(=O)c1c2c3c(cccc3[nH]c1=O)C(=O)c1ccccc1-2 [NQDI-1] | 38.84 | 14.23 | – | – | –
O=C(O)CCCc1ccccc1 [PBA] | −41.56 | −11.71 | – | – | –
CCc1cncnc1N1CCN(Cc2nc3ccc(C(F)(F)F)cc3[nH]2)CC1 [PF-4708671] | −11.45 | −16.5 | – | – | –
CCCCCCCCCCCCCC(=O)O[C@@H]1[C@@H](C)[C@@]2(O)[C@@H](C=C(CO)C[C@]3(O)C(=O)C(C)=C[C@@H]23)[C@@H]2C(C)(C)[C@]12OC(C)=O [PMA] | −5.731 | 25.5 | – | – | –
COS(=O)(=O)[O-].C[n+]1c2ccccc2nc2ccccc21 [Phenazine methosulfate] | −43.4 | −18.42 | – | – | –
CCCCCCCCCCCCCC(=O)O[C@@H]1[C@@H](C)[C@@]2(O)[C@@H](C=C(CO)C[C@]3(O)C(=O)C(C)=C[C@@H]23)[C@@H]2C(C)(C)[C@]12OC(C)=O [Phorbol-12-Myristate-13-Ace] | 27.17 | 27.55 | – | – | –
CN(C)C[C@H]1CCn2c(c(C3=C(c4cn(C)c5ccccc45)C(=O)NC3=O)c3ccccc32)C1 [Ro 32-0432] | 69.45 | 81.4 | – | – | –
O=C(/C=C/c1ccccc1)NC(NC(=S)Nc1cccc2cccnc12)C(Cl)(Cl)Cl (stereo not shown) [SAL] | −5.72 | −11.87 | – | – | –
C[S+]([O-])c1ccc(-c2nc(-c3ccc(F)cc3)c(-c3ccncc3)[nH]2)cc1 (stereo not shown) [SB203580] | 42.39 | – | – | – | –
CCn1c(-c2nonc2N)nc2cncc(CNC3CCNCC3)c21 [SB747651A] | 19.58 | 7.742 | – | – | –
CCOC(=O)C1=C(N)Oc2ccc(Cl)cc2C1C(C#N)C(=O)OCC (stereo not shown) [SC 79] | −12.66 | 24.68 | – | – | –
CC(=O)O[C@@H]1[C@@H](OC(C)=O)[C@@H](O)[C@H](Oc2c(-c3ccc(O)cc3)oc3cc(O)cc(O)c3c2=O)O[C@H]1C [SL0101] | 28.18 | 88.94 | – | – | –
O=S(=O)(N=Cc1c(O)ccc2ccccc12)c1cccs1 [STF-083010] | 9.976 | 3.154 | – | – | –
CC(C)(C)c1ccc(C(=O)Nc2cn3cc(-n4ccnc4)ccc3n2)cc1.Cl.Cl [TC ASK 10] | −1.619 | −2.831 | – | – | –
C[C@H](CCC(=O)NCCS(=O)(=O)O)[C@H]1CC[C@H]2[C@@H]3[C@H](O)C[C@@H]4C[C@H](O)CC[C@]4(C)[C@H]3CC[C@]12C [TCDCA] | 14.29 | 40.59 | – | – | –
C[C@H](CCC(=O)NCCS(=O)(=O)O)[C@H]1CC[C@H]2[C@@H]3CC[C@@H]4C[C@H](O)CC[C@]4(C)[C@H]3CC[C@]12C [TLCA] | 18.97 | 64.49 | – | – | –
FC(F)(F)c1ccccc1-n1ccnc1 [TRIM] | 13.72 | 53.08 | – | – | –
C[C@H](CCC(=O)O)[C@H]1CC[C@H]2[C@@H]3[C@@H](O)C[C@@H]4C[C@H](O)CC[C@]4(C)[C@H]3CC[C@]12C [UDCA] | 18.21 | 47.99 | – | – | –
Cc1cc(C)nc(NS(=O)(=O)c2ccc(NC(=S)NC(=O)COc3ccc(Br)cc3Cl)cc2)n1 [ZCL 278] | 3.473 | 13.44 | – | – | –
CC(C)C[C@@H](C=O)NC(=O)[C@@H](NS(=O)(=O)c1ccc(F)cc1)C(C)C [calpain inh. vi] | 9.878 | 3.897 | – | – | –
C[C@H](CCC(=O)O)[C@H]1CC[C@H]2[C@@H]3C(=O)C[C@@H]4CC(=O)CC[C@]4(C)[C@H]3CC(=O)[C@]12C [dehydro-CA] | 12.32 | 53.85 | – | – | –
C[C@H](CC(=O)O)[C@H]1CC[C@H]2[C@@H]3CC[C@@H]4C[C@H](O)CC[C@]4(C)[C@H]3C[C@H](O)[C@]12C [nor-DCA] | 14.57 | 19.56 | – | – | –
Guanabenz acetate salt | – | – | – | −5.953 | −1.699
IGF-1: insulin-like growth factor-1 | 4.009 | 0.4167 | – | – | –
Indirubin-3′-monoxime | 1.509 | −0.05103 | – | – | –
